According to the supplement of paper PMC10670038:
Counter-ions that a name gives are not always drawn. ± gives the standard deviation of the averaged measurements. Over roughly 2,000 compounds, “relative cell viability vs DMSO, compound alone” has its median near 1.1; the lowest 2% begin near 0.29. The list shows a part of the results.

Test system: TE10
Assay: relative cell viability vs DMSO, compound alone (fraction); TE10 is an esophageal squamous carcinoma line; higher = less cytotoxic
Settings: 2 µM; 48 h
Experimental: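 TE10 ESCC cells (1,000/well, 384-well plates) were treated with Selleck bioactive library compounds at 2 uM alone for 48 h. Viability was read by CellTiter-Glo and expressed relative to DMSO wells. Two technical replicates (A, B).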

SMILES | relative cell viability
COc1ccc(S(=O)(=O)N(C(C)=O)c2ccccc2/C=C/c2cc[n+]([O-])cc2)cc1 | 0.918 ± 0.058
Cc1c(F)cc(C(=O)NC2CC2)cc1-c1ccc(C(=O)NCC(C)(C)C)cn1 | 0.959 ± 0.18
O=C1c2ccc(Nc3ccc(F)cc3F)cc2CCc2ccc(OC[C@H](O)CO)cc21 [Skepinone-L] | 1.1 ± 0.066
CCCNCC(O)COc1ccccc1C(=O)CCc1ccccc1 (stereo unspecified) [Propafenone HCl] | 1.03 ± 0.022
COc1cc([C@@H]2c3cc4c(cc3[C@@H](O[C@@H]3O[C@@H]5CO[C@@H](C)O[C@H]5[C@H](O)[C@H]3O)[C@H]3COC(=O)[C@H]23)OCO4)cc(OC)c1O [Etoposide] | 0.755 ± 0.018
COc1ccccc1OCC(O)CN1CCN(CC(=O)Nc2c(C)cccc2C)CC1 (stereo unspecified) [Ranolazine 2HCl] | 1.24 ± 0.027
COc1ccccc1OCC(O)CN1CCN(CC(=O)Nc2c(C)cccc2C)CC1 (stereo unspecified) [Ranolazine] | 1.01 ± 0.025
CN(C)C(=S)NN=C(c1ccccn1)c1ccccn1 | 0.6013 ± 0.0038
C[C@H]1C[C@@H]2[C@H]([C@@H](O)C[C@@]3(C)[C@H]2CC[C@]3(O)C(=O)CO)[C@@]2(C)C=CC(=O)C=C12 [Methylprednisolone] | 0.87 ± 0.053
COc1cc2c(Oc3ccc4[nH]c(C)cc4c3F)ncnc2cc1OCCCN1CCCC1 [Cediranib (AZD2171)] | 1.02 ± 0.12
O=C(O)c1cc(-c2ccccc2)nc2ccccc12 [Cinchophen] | 1.06 ± 0.052
CC(=O)O[C@]1(C(C)=O)CC[C@H]2[C@@H]3C[C@H](C)C4=CC(=O)CC[C@]4(C)[C@H]3CC[C@@]21C [Medroxyprogesterone acetate] | 0.904 ± 0.067
Nc1nc2n[nH]nc2c(=O)[nH]1 [Azaguanine-8] | 1.24 ± 0.016
CC(NC(=O)C(O)c1cc(F)cc(F)c1)C(=O)NC1C(=O)N(C)c2ccccc2-c2ccccc21 (stereo unspecified) | 1.05 ± 0.019
CN(C)c1nc(N(C)C)nc(N(C)C)n1 [Altretamine] | 1.18 ± 0.015
CCOC(=O)[C@H](CCc1ccccc1)N[C@H]1CS[C@H](c2cccs2)CN(CC(=O)O)C1=O [Temocapril HCl] | 1.13 ± 0.031
COc1ccc(F)c(F)c1C(=O)c1cnc(NC2CCN(S(C)(=O)=O)CC2)nc1N | 0.479 ± 0.012
O=S(=O)(O)c1cc(O)ccc1O [Ethamsylate] | 1.1 ± 0.022
O=C1C[C@@H](c2ccc(O)cc2)Oc2cc(O)cc(O)c21 [Naringenin] | 1.04 ± 0.077
CCC(=O)O[C@]1(C(=O)CCl)[C@@H](C)C[C@H]2[C@@H]3CCC4=CC(=O)C=C[C@]4(C)[C@@]3(F)[C@@H](O)C[C@@]21C [Clobetasol propionate] | 0.99 ± 0.013
CC(=O)Nc1nc(C)c(-c2ccc(Cl)c(S(=O)(=O)NCCO)c2)s1 | 0.876 ± 0.03
